From PubChem BioAssay AID686979 (National Center for Advancing Translational Sciences (NCATS), 2013)
The whole screen tested about 420,000 compounds, of which about 50,000 (12%) were called active. The inconclusive results got no clear call from the source; some entries with a clear call stand among them for comparison. Calls follow the shape of the dose curve; as a rule, active = well fitted inhibition curve with a large enough effect; inconclusive = small, poorly fitted or top-dose-only effect; inactive = flat fitted curve, though single readings scatter. No potency is given beside an inconclusive call; the fits are too rough.

test: qHTS for Inhibitors of human tyrosyl-DNA phosphodiesterase 1 (TDP1): qHTS in cells in presence of CPT; conditions: chicken DT40 Tdp1-/-;hTDP1 cells + 20 nM CPT, ATP luminescence, 48 h; activity change, negative = growth inhibition: at 46.2 µM (top of the series) unless noted; also: nearly all actives have a fitted effect of over 55% in size
How it was run: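 Cell growth measured by CellTiter-Glo luminescence after a minimum 48 h, 37 C compound exposure with 20 nM CPT in Tdp1-knockout DT40 cells stably expressing hTDP1, seeded 400/well; qHTS titration format.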
% is scaled to controls: 0 for no effect and ±100 for the full control effect; potency is read from the fitted curve at half-maximal effect; tags tell the direction and shape of the fitted curve.

| SMILES | Potency | activity change, negative = growth inhibition |
| --- | --- | --- |
| O=C(Nc1ccc2c(c1)CCC2)c1cc2ccccc2o1 | inconclusive [inhibitor, single point] | – |
| Cc1ccc(S(=O)(=O)NCC(=O)NCCc2c[nH]c3ccccc23)cc1C | inconclusive [inhibitor, partial curve] | – |
| Cc1ccc(NC(=O)CN2C(=O)C(c3ccc(F)cc3)=NC23CCCCC3)c(C)c1 | inconclusive [inhibitor, single point] | – |
| CCOC(=O)[C@]12CCC=C1N(Cc1ccccc1)C(=O)[C@H](CC(=O)NCCC(C)C)C2 | active: 20.6 µM | – |
| Cc1cccc(C)c1OCC(O)CN1CCC(CN2C(=O)c3cccc4cccc(c34)C2=O)CC1 (stereo unspecified) | active: 11.6 µM | – |
| Cc1cc(Cl)ccc1OCCCC(=O)NCc1ccncc1 | – | inconclusive: -31.5% [inhibitor] |
| CCc1ccccc1NC(=O)C(CC)Sc1ncnc2c1sc1ccccc12 (stereo unspecified) | inconclusive [inhibitor, single point] | – |
| COc1ccccc1NC(=S)NCCc1ccc(Cl)cc1 | inconclusive [inhibitor, single point] | – |
| COc1cc(/C=N/N(C)C)cc(Br)c1O | inactive | – |
| Cc1cc(C)c2cc(C#N)c(N3CCNCC3)nc2c1 | inconclusive [inhibitor, single point] | – |
| CC(=O)Nc1cccc(-c2csc(C(C)(O)c3ccccc3)n2)c1 (stereo unspecified) | inconclusive [inhibitor, single point] | – |
| COc1ccc(/C=N/NC(=O)c2cc(C)oc2C)cc1OCc1ccccc1 | inconclusive [inhibitor, partial curve] | – |
| COc1ccc(COC(=O)Oc2ccc(CNC(C)=O)cc2OC)c([N+](=O)[O-])c1 | inactive | – |
| CCc1nccn1CCC(=O)NC1CC(C)(C)Cc2c1cnn2-c1ccc(C)cc1 (stereo unspecified) | inconclusive [inhibitor, full curve, poor fit] | – |
| CCOc1ccccc1OCC(=O)Nc1cc(S(=O)(=O)N2CCCCC2)ccc1N1CCN(CC)CC1 | active: 23.1 µM | – |
| CCN(CC(=O)NCc1cccs1)C(=O)c1ccccc1Cl | inactive | – |
| Cc1ccccc1CCNC(=O)Cn1ccc2cc(S(=O)(=O)N3CCCC3)ccc21 | active: 18.4 µM | – |
| O=C(Cc1ccccc1)N(Cc1cccnc1)c1nc2c(F)cccc2s1 | inconclusive [inhibitor, single point] | – |
| Cc1ccc(-c2nc(-c3ccc(Cl)cc3)sc2CC(=O)O)c(C)c1 | inactive | – |
| CC(C)Cn1c(N)c(C(=O)COC(=O)c2ccccc2F)c(=O)n(C)c1=O | inconclusive [inhibitor, single point] | – |
| CCc1nc2ccc(C(=O)NCc3ccc(OC)cc3)cn2c1N(C)Cc1ccc(OC)cc1 | inconclusive [inhibitor, single point] | – |
| C=CCN(CC=C)CC(=O)Nn1c(C)ccc1C | inactive | – |
| O=C(Nc1cc(S(=O)(=O)N2CCOCC2)ccc1N1CCCCC1)c1ccccc1 | inconclusive [inhibitor, single point] | – |
| Cn1c(=O)c2[nH]c(CCc3ccncc3)nc2n(C)c1=O | inactive | – |

| SMILES | Potency | activity change, negative = growth inhibition |
| --- | --- | --- |
| O=C(/C=C/c1ccco1)Nc1ccc(Oc2ccc(Cl)cc2)cc1 | active: 4.11 µM | – |
| COc1ccccc1CNc1cc(-c2ccccc2C)ncn1 | active: 4.11 µM | – |
| COCCNc1nc(-c2ccc(Cl)cc2C)c2sccc2n1 | inconclusive [inhibitor, single point] | – |
| COc1ccc(-c2cc3c(o2)CCCC3OCCN2CCOCC2)cc1 (stereo unspecified) | – | inconclusive: -35.4% [inhibitor] |
| COc1ccc(OCc2nc3ccccc3n2C(C)c2ccccc2)cc1 (stereo unspecified) | inconclusive [inhibitor, single point] | – |
| O=C(c1ccncc1)N1CCC2(CC1)CCN(C(c1ccccc1)c1ccccc1)CC2 | inactive | – |
| O=C(Nc1ccc(N2CCOCC2)nc1)c1ccccc1Cl | inactive | – |
| O=C(Cn1cnc2ccccc21)NC(c1ccccc1)c1ccccc1 | inconclusive [inhibitor, single point] | – |
| Cc1ccc([C@@H]2CC=C(C(=O)O)[C@H](c3ccc(Cl)cc3)N2S(=O)(=O)c2ccc(C)cc2)cc1 | inactive | – |
| Nc1[nH]c(C(=O)c2ccccc2)c(-c2ccc(Cl)cc2)c1C(=O)NCc1ccccc1 | inactive | – |
| CC1(C(=O)NS(=O)(=O)c2ccc(Cl)s2)CCN1C(=O)C1CCCCC1 (stereo unspecified) | inactive | – |
| CCOc1cccc2cc(-c3cn4c(n3)sc3cc(C)ccc34)c(=O)oc12 | inactive | – |
| O=C(NCC1CC1)C1(C(F)(F)F)C/C(=C\Cc2ccccc2)CCCO1 (stereo unspecified) | – | inconclusive: -30.1% [inhibitor] |
| COc1ccc(NC(=O)c2ccc3ccccc3c2)cc1NS(=O)(=O)c1ccc(F)cc1 | inconclusive [inhibitor, single point] | – |
| CN(C)c1oc(-c2ccccc2Cl)nc1C#N | inactive | – |
| CCCN(S(=O)(=O)c1ccccc1F)S(=O)(=O)c1ccccc1Br | inconclusive [inhibitor, single point] | – |
| O=C1CSC(=S)N1/N=C/c1ccc(O)c([N+](=O)[O-])c1 | inconclusive [inhibitor, single point] | – |
| Cc1cc(SCC(=O)NN)c2cc(Br)ccc2n1 | inconclusive [inhibitor, single point] | – |
| Cc1oc2cc(O)cc(O)c2c(=O)c1-c1ccc2c(c1)OCCCO2 | – | inconclusive: -35.9% [inhibitor] |
| O=C(COC(=O)C1CC1)Nc1ccc(Oc2ccccc2)cc1 | inconclusive [inhibitor, single point] | – |
| Cc1cc(C)c2c(CC(=O)Nc3ccc(S(=O)(=O)N4CCCC(C)C4)cc3)coc2c1 (stereo unspecified) | inconclusive [inhibitor, single point] | – |
| Cc1nc2ccc(C(=O)N/N=C/c3ccc(O)cc3)cc2[nH]1 | inactive | – |
| Cc1ccc(NC(=O)C(c2ccc(Cl)cc2)N2CCCCC2)cc1 (stereo unspecified) | active: 14.6 µM | – |
| CCOc1ccc(C(=O)N[C@H](C(=O)Nc2cccc(S(=O)(=O)N3CCCCC3)c2)C(C)C)cc1 | inconclusive [inhibitor, single point] | – |

| SMILES | Potency | activity change, negative = growth inhibition |
| --- | --- | --- |
| CC(=O)Nc1ccc(S(=O)(=O)N2CCN(c3ccc([N+](=O)[O-])c(NCCN4CCOCC4)c3)CC2)cc1 | – | inconclusive: -32.8% [inhibitor] |
| CCC(C(=O)Nc1ccc(C(=O)OC)cc1)n1nc(-c2ccc(C)cc2)c2c(c1=O)CCCC2 (stereo unspecified) | inconclusive [inhibitor, single point] | – |
| COc1cccc(N2CCN(c3ccc(S(=O)(=O)N4CCN(C)CC4)cc3[N+](=O)[O-])CC2)c1 | inconclusive [inhibitor, single point] | – |
| CCN(CC(=O)NC(c1ccccc1)c1ccccc1)Cc1nc2ccccc2c(=O)[nH]1 | inconclusive [inhibitor, single point] | – |
| CCOC(=O)C1=C[C@@H](C(C)(C)C)N(S(=O)(=O)c2ccc(C)cc2)[C@H]1c1cccc(Cl)c1 | active: 14.6 µM | – |
| CCOc1ccccc1C(=O)NCCCn1ccnc1 | inactive | – |
| Cn1c(=O)c(C(=O)NNC(=O)c2ccc(Br)cc2)c(O)c2ccccc21 | inconclusive [inhibitor, single point] | – |
| COc1cccc(Nc2ncc3nc(C)c(=O)n(CCc4ccccc4)c3n2)c1 | inactive | – |
| CCOc1ccc2ncc(S(=O)(=O)c3ccccc3)c(N3CCN(c4ccccc4)CC3)c2c1 | active: 14.6 µM | – |
| C=C(C)CSc1cc(C)c(C#N)c2nc3ccccc3n12 | active: 20.6 µM | – |
| CCc1nc2c(OCCOc3ccccc3)cccn2c1N(C=O)Cc1ccc(OC)cc1 | inconclusive [inhibitor, single point] | – |
| C=C(C)Cn1c(SCC(=O)c2ccc(OC)cc2)nc2sc3c(c2c1=O)CCCC3 | active: 10.3 µM | – |
| Cc1cc(Br)ccc1NC(=O)C(Cc1ccccc1)NS(=O)(=O)c1ccc(Br)s1 (stereo unspecified) | – | inconclusive: -30.7% [inhibitor] |
| COc1ccc(NS(=O)(=O)c2cccc(C(=O)NCC(c3ccc(OC)cc3)N3CCCCC3)c2)cc1 (stereo unspecified) | inconclusive [inhibitor, single point] | – |
| Cc1ccc(C(CNC(=O)C(=O)Nc2ccc3c(c2)OCCO3)N2CCN(C)CC2)cc1 (stereo unspecified) | inconclusive [inhibitor, single point] | – |
| COc1ccc(NS(=O)(=O)c2ccc(-n3nnc4ccccc43)c([N+](=O)[O-])c2)cc1 | inactive | – |
| CCOc1cc(C2Nc3ccccc3-c3nnc(SCc4ccccc4)nc3O2)ccc1OC (stereo unspecified) | inconclusive [inhibitor, single point] | – |
| Cn1cc(CC(=O)N2CCN(c3ccc(Cl)cc3)CC2)c2ccccc21 | inconclusive [inhibitor, single point] | – |
| Cc1ccc(S(=O)(=O)N(C)c2ccc(OC(=O)c3cccs3)cc2)cc1C | inconclusive [inhibitor, single point] | – |
| COc1cccc(CNC(=O)c2cc3cccc4c3n2CC(C)S4)c1OC (stereo unspecified) | inconclusive [inhibitor, single point] | – |
| O=C(CSC1CC(=O)N(CCc2ccccc2)C1=O)Nc1cccc(Cl)c1 (stereo unspecified) | inconclusive [inhibitor, single point] | – |
| CCn1c(/C=C/c2ccc(O)cc2)nc2ccccc2c1=O | inconclusive [inhibitor, single point] | – |
| O=C(c1ccco1)N1CCN(Cc2nnnn2CC2CCCO2)CC1 (stereo unspecified) | inconclusive [inhibitor, single point] | – |
